# Experimental data published in the supplement of paper PMC7125110.
# ± gives the standard error. Variants at the background level are over-represented here.
# B1: glmS ribozyme (parent)
# chain: AUAAAAGCGCCAGAACUACAGAAAUGUAGUUGACGAGGAGGAGGUUUAUCGAAUUUUCGGCGGAUGCCUCCAAA
# Variants of: B1
# Experiment: self-cleavage kobs at 10000 uM GlcN6P; higher = faster cleavage; RNA array
# Conditions: with glucosamine-6-phosphate
# Outline: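 Glucosamine-6-phosphate, from 40 μM to 10 mM in HEPES/KCl/Mg(OAc)2 buffer, was flowed over sequenced MiSeq chips carrying barcoded ribozyme variants transcribed in situ by E. coli RNA polymerase. A hybridised Cy3 probe tracked the variants at 37 °C as tiles were imaged over ~14 h. kobs, kcat and KM were obtained by fitting normalised per-tile medians to exponential decays and then applying weighted Michaelis–Menten fits across concentrations.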
row,Variant,self-cleavage kobs at 10000 uM GlcN6P [s⁻¹]
1,AUAAAAGCGCCGGAACUACAGAAAUGUAGUUGACGAGGAGGGGGUUUAUCGGAUUUUCGGCGGAUGCCUCCAAA,2.4e-05 ± 1.2e-05
2,AUAAAAGCGCCAGAUCUACAGAAAUGUAGUUGACGAGGAGGAGGUUUAUCGUAUUUUCGACGGAUGCCUCCAAA,< 1e-05
3,AUAAAAGCGCCAGAAGUACAGAAAUGUAGUUGACGAGGAGGAGGUUUAUCGAAUUUUCGGAGGAGGCCUCCAAA,< 1e-05
4,AUAAAAGCGCCAGCACUACAGAAAUGUAGUUGACGAGGUGGAGGUUUAUCGAAUUUUCUGCGGAUGCCUCCAAA,< 1e-05
5,AUAAAAGCGCCUGAACUACAGAAAUGUAGUUGACGAGGAUGAAGUUUAUCGAAACUUCGGCGGAUUCCUCCAAA,< 1e-05
6,AUAAAAGCGCCAGAACUACAGAAAUGUAGGUGAGGAGGAGGAGGUUUAUCGAAUUGUCGGCGGAUGCCUCCAAA,< 1e-05
7,AUAAAAGCGCCAGGACUACAGAAAUGUAGUUGACGAGGAGGAGGUUCAUCGAAUUGUCGGCGGAUGCCUCCAAA,0.0112 ± 0.0019
8,AUAAAAGCGCCAGCACUACAGAAAUGUAGUUGACGAGGAGGAGGUUUAUAGAAUUUUCGGCGGAUGCCUCAAAA,< 1e-05
9,AUAAAAGCGCCAGAGUUACAGAAAUGUAGUUGACGAGGAGGAGGUUUAUCUAAUUUUCGGCGGAUGCCUCCAAA,< 1e-05
10,AUAAAAGCGCCGGAACUACAGAAAUGUAGUUGACGAGGAGGAGGUUUAUCGAAUUUUCGGUGGAUGGCUCCAAA,< 1e-05
11,AUAAAAGCGCCGGUACUACAGAAAUGUAGUUUACGAGGAGGAGGUUUAUCGAAUUUUCGACGGAUUCCUCCAAA,< 1e-05
12,AUAAAAGCGCCCGAACUACAGAAAUGUAGUUGACGAGGUGGAGGUUUCUCGAAUUUUCGGCGGAUGCCUCCAAA,4.14e-05 ± 1e-05
13,AUAAAAGCGCCAGAACUACAGAAAUGUAAUUGACGAGGAGGAGGUUUAUCGAAUUUUCGGCGGAUUCUUCCAAA,3.63e-05 ± 1.6e-05
14,AUAAAAGCGCGAGAACUACAGAAAUGUAGUGGACUUGGAGGAGGUUUACCGUAUUUUCGGCGGAUGCCUCCAAA,< 1e-05
15,AUAAAAGCGCUAGAACUACAGAAAUGUAGUUGACGAGGUGGAGGUUUAUCGAAGUUUCGGCGGAUGCCUCCAAA,0.000492 ± 0.00011
16,AUAAAAGCGCCACGACUACAGAAAUGUAGGUGGCGAGGAGGACGUUUAUCGAAUUUCCGGCGGAUGCCUCCAAA,< 1e-05
17,AUAAAAGCGCCAGAACUACAGAAAUGUACUUGUCGAGGAGGAGGUUUAUCGAAUUUUCGGCGGAUGCCUCCAAA,2.33e-05 ± 1.2e-05
18,AUAAAAGCGCCAGAACUACAGAAAUUUAGUUGACGAGGAGGAGGUUUAUCGAAUUUGCGGCGGAUGCCUCCAAA,5.83e-05 ± 2e-05
19,AUAAAAGCGCCAUAACUACAGAAAUGUAGUUGACGAGGAGGAGGUUUAUCGAAUUUUCGGCGCAUGUCUCCAAA,< 1e-05

row,Variant,self-cleavage kobs at 10000 uM GlcN6P [s⁻¹]
1,AUAAAAGCGCCAGAACUACAGAAAUGUAGGGGACGAGGAGGAGGUCUAUCGAAUUUUCGGCGGAGGCCUCCAAA,5.94e-05 ± 2.6e-05
2,AUAAAAGCGCCAGAAUUACAGAAAUGUAGUUGACUAGGAGGAGGUUUAUCGCAUUUUCGGCGGAUGCCUCCAAA,< 1e-05
3,AUAAAAGCGCUAGAACUACAGAAAUGUAGUUAACGAGGAGGGGGUUUAUCGAUUUUUCGGCGGAUGCCUCCAAA,9.31e-05 ± 2.5e-05
4,AUAAAAGCGCCAGAAGUACAGAAAUGUAGUUGACGAGGAGGAGGUUUAUCGUAUUUUCGGCGGAUGCAUCCAAA,< 1e-05
5,AUAAAAGCGCCAGAAUUACAGAAAUGUAGUUGGCGAGGUGGAGGUUUAUCGAAUUUUCGGCGGAUGCCUCCAAA,< 1e-05
6,AUAAAAGCGCCAGAACUACAGAAAUGUAGGUGACUAGGAAGAGGUUUAUCGAAUUUUCGACGGAUGGCUCCAAA,< 1e-05
7,AUAAAAGCGCCAGAACUACAGAAAUGUAGUAGAGGAGGAGGACGUUUAUCGAAUUUUCGGCGGAUGCCUCCAAA,< 1e-05
8,AUAAAAGCGCCAGUAGUACAGAAAUGUAGUUAACGAGGAGGAGGUUUAUCGAAUUGUCGGCGGAUGCCUCCAAA,0.000337 ± 5e-05
9,AUAAAAGCGCCAGCACUACAGAAAUGUAGUGGACGAGGUGUAGGUUAAUCGAAUUUUCGUCGGAUGCCUCCAAA,< 1e-05
10,AUAAAAGCGCCAGGACUACAGAAAUGUAGUUGACGAGGAGGAGGUUUAACGAAUUUUCGGCGGAUGCCUCCAAA,3.67e-05 ± 1.2e-05
11,AUAAAAGCGCCAGUAUUACAGAAAUGUAGUUGACGAGGAGGAGGUUUAUCAAAUUUUCGGCGGAUGCCUCCAAA,< 1e-05
12,AUAAAAGCGCCCGAACUACAGAAAUGUAGUUGACGAGGAGGAGUUUUAUCGAAUUUUGGGCGGAUGCCUCCAAA,< 1e-05
13,AUAAAAGCGCCAGUACUACAGAAAUGUAGUUGACGAGGCGGAGGUUUAUCGAAUUUUCGGCGGACGCCUCCAAA,6.04e-05 ± 1.6e-05
14,AUAAAAGCGCCAGAACUACAGAAAUGUAGCUGAUUAGGAGGAGGUUUAUCGAAUUUUCGGCGGAUGCCUCCAAA,< 1e-05
15,AUAAAAGCGCCAGAAAUACAGAAAUGUAGUUGAGGAGGAGGAGGUUUAUCGAAUUUUCAGCGGAUGCCUCCAAA,< 1e-05
16,AUAAAAGCGCCAGAACUACAGAAAUGUAGGUGACGAUGAGGAGGUUUAUCGUAUUUUCAGCGGAUGCCUCCAAA,< 1e-05
17,AUAAAAGCGCCUUAACUACAGAAAUGUAGUUGACCAGGAGGAGGUUUAUCGAAUUUUCGUCGGAUGCCUCAAAA,< 1e-05
18,AUAAAAGCGCCAUAACUACAGAAAUGUAGUUGACGAGGAGGAGGUUUAUCGAAUUUUCGGCGGUUGUCUUCAAA,< 1e-05
